Results as given in article PMC4336329 (PLoS ONE, 2015).
Out of some 310,000 compounds screened, about 2,200 (0.71%) showed an effect of 50% or more. Effects have a minus sign here. The list shows a part of the results.

These compounds were tested against human ether-à-go-go-related gene (hERG) potassium channel (human, UniProt Q12809) (assay: primary screen, population patch clamp on CHO cells stably expressing hERG).
Chain of human ether-à-go-go-related gene (hERG) potassium channel (Q12809 whole entry, looked up): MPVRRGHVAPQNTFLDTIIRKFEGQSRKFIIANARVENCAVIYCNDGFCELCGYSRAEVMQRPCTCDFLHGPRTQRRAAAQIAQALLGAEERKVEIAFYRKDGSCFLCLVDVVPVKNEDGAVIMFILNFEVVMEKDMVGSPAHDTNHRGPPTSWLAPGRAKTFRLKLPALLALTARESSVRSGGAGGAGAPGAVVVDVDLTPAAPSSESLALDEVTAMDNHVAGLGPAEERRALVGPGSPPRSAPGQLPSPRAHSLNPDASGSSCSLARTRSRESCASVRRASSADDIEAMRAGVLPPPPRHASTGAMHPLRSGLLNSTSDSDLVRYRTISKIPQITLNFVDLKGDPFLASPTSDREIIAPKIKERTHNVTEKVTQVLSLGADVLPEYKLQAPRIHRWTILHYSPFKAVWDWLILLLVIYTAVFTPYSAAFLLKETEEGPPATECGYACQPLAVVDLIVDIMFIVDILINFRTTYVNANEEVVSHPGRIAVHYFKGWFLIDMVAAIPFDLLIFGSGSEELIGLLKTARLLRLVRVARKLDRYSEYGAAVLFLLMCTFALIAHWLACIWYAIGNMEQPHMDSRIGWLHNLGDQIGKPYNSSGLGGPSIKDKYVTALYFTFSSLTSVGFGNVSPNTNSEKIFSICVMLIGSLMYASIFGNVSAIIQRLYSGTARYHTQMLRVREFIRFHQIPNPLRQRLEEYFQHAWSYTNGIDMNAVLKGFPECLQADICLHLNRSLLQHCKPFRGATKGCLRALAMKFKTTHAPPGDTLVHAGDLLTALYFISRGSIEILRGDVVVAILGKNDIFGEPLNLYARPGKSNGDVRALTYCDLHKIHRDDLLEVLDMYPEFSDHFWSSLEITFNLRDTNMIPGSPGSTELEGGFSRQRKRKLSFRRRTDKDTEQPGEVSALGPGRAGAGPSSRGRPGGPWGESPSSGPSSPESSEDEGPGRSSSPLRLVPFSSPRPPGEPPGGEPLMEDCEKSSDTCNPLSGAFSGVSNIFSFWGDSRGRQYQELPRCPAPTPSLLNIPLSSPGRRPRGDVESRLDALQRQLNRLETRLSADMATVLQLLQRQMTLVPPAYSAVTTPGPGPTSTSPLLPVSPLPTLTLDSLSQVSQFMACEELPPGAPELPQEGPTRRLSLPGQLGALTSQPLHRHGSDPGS

SMILES | hERG current change (%, negative = inhibition) at 1uM [%]
Cc1nc(Cl)sc1C(=O)Nc1ccc2ccccc2c1 | 13.8
COc1ccc(-c2cc(=O)oc3cc(OCC(=O)NCc4ccccn4)ccc23)cc1 | 8.12
CCS(=O)(=O)N1CCN(C(=O)c2cccnc2)CC1 | 1.01
CN(c1nc2ccccc2[nH]c1=O)C1CCCCC1 | 4.11
O=C(Nc1ccc([N+](=O)[O-])cc1)c1cccc(S(=O)(=O)Nc2cccnc2)c1 | 12
Cc1sc2ncnc(N3CCC(C(=O)NCC(=O)Nc4ccc(F)c(F)c4)CC3)c2c1C | -32.5
COc1ccc(/C=C2\SC(=O)N(CC(=O)N(C)C3CCS(=O)(=O)C3)C2=O)cc1 (stereo not drawn) | 11
O=[n+]1c2c(n([O-])c3ccccc31)CCC2 | 5.78
Cc1ccc(Cl)cc1NC(=S)N/N=C/c1cccc2ccccc12 | 0.535
O=C(CCCSc1nc2ccccc2[nH]1)NCc1ccccc1 | -2.35
CCn1c(SCC(=O)c2cc(C)ccc2C)nc2cc(S(=O)(=O)N3CCOCC3)ccc21 | 5.92
COC(=O)/C=C1\C(=O)N(c2nc3ccccc3s2)C(=S)N1c1ccc(F)cc1 | 15
COc1cccc(-n2c(Cc3cc(=O)[nH]c(=O)[nH]3)nnc2SCc2cccc(C(F)(F)F)c2)c1 | 12.4
Cn1nc(C(=O)NCCN2CCOCC2)c2ccccc2c1=O | 15.8
COc1ccc(C(=O)Nc2ccccc2C(=O)NC(C)C)cc1OC | 1.11
CN1CCN(C/C(=C2/N=C(c3ccccc3)OC2=O)N(C)C)CC1 | -16.9
COc1ccc(C(=O)NC2CCN(S(=O)(=O)c3ccc(C)cc3)CC2)cc1 | 13.3
CCCCC(=O)Nc1ccc(NC(=S)NC(=O)c2cccs2)cc1OC | 6.75
NNC(=O)c1cc(-c2ccccc2)sc1N | 4.23
Oc1[nH]c(=S)sc1/C=C1\C(c2ccccc2)=Nc2ccccc21 | 25.4
Cc1c(C)c2c(C)[nH]nc2oc1=O | 11.4
CC(NC(=O)/C(C#N)=C/c1ccc(C(=O)O)cc1)c1ccccc1 (stereo not drawn) | 2.43
COC(=O)C1=C(c2ccc(-c3ccccc3)c(F)c2)C[C@@H]2CC[C@H]1N2C(=O)NCC1CC1 | 17.9

SMILES | hERG current change (%, negative = inhibition) at 1uM [%]
Cc1[nH][nH]c(=O)c1N=Nc1ccccc1C#N | 10.7
CN(CC(=O)Nc1ccc(C#N)cc1)Cc1ccc(Cl)cc1 | -41.4
CC(NC(=O)CCSCCC(=O)NC(C)c1ccccc1)c1ccccc1 (stereo not drawn) | 5.46
O=C(O)c1ccccc1C(=O)NNC(=O)C(c1ccccc1)c1ccccc1 | 9.92
O=C(CNC(=O)c1ccc(N2C(=O)c3ccccc3C2=O)cc1)OCC(=O)c1ccc(Cl)cc1 | -0.099
COc1ccccc1NC(=S)N1CCN(c2ccccn2)CC1 | 15.5
CCN1C(C#N)=C(C#N)N=C(C)CC1(C)C | -1.54
O=C1C=CC(=O)C(C2=C3C(=O)N(CCc4ccccc4)CC(=O)N3CCC2)=C1 | 8.14
C=CCOc1ccc(/C=C/C(=O)OCC(=O)NCc2cccs2)cc1 | 13.4
Cc1ccc(C(=O)NC2CCN(CC(=O)Nc3cccc([N+](=O)[O-])c3)CC2)cc1 | -39.5
Cc1ccc(NS(=O)(=O)c2cccc(C(=O)NCC(c3ccco3)N3CCCCC3)c2)cc1 (stereo not drawn) | 1.94
O=C(Nc1ccccc1)c1nc[nH]c1C(=O)N1CCN(c2ccccc2)CC1 | 9.77
CCn1c(SCC(=O)c2ccccc2)nnc1-c1cccnc1 | -4.55
Cc1ccc(-c2noc(C3CCCN(C(=O)c4cccc(F)c4)C3)n2)cc1 (stereo not drawn) | 12.6
COC(=O)c1ccccc1CSc1nsc(/C=C/N(C)C)c1C#N | 14.6
CC(=O)c1cccc(S(=O)(=O)N2CCC(C(=O)O)(c3ccccc3)CC2)c1 | 11.2
O=C(c1ccco1)N1CCN(C(=S)Nc2ccc(Br)cc2Cl)CC1 | -3.58
CCCOc1ccc(-c2nnn(CC(=O)c3c[nH]c4ccccc34)n2)cc1 | 10.8
COc1ccc(C)cc1NC(=O)C1CCCN1C(=O)OCc1ccccc1 (stereo not drawn) | 3.53
COc1cccc(/C=C2\SC(=N)N(c3ccc(F)cc3)C2=O)c1 | 8.04
CCOc1ccccc1NC(=O)Cn1cnc2c(cnn2-c2ccc(C)c(C)c2)c1=O | 6.42
CSc1cc(C)n(-c2ccc(Cl)cc2)c(=S)c1C(C)=O | -20.9
